Assay results: a collection of fitness landscapes (doi:10.1016/j.celrep.2020.107928)
The full ranking holds about 81,000 sequences; the median of “one-hybrid fitness for binding parS DNA” is about -0.17, and the highest 2% start at about 0.51. This is one part of the list.

B1: Caulobacter ParB omega fusion; a variant is named by its letters at X, in order, B8GW30 (parent)
chain: MESVVVGEPGMSEGRRGLGRGLSALLGEVDAAPAQAPGEQLGGSREAPIEILQRNPDQPRRTFREEDLEDLSNSIREKGVLQPILVRPSPDTAGEYQIVAGERAWRAAQRAGLKTVPIMVRELDDLAVLEIGIIENVQRADLNVLEEALSYKVLMEKFERTQENIAQTIGKSXSHVANXMRLLXLPDEVQSYLVSGELTAXHARAIAAAADPVALAKQIIEGGLSVRETEALARKAPNLSAGKSKGGRPPRVKDTDTQALESDLSSVLGLDVSIDHRGSTGTLTITYATLEQLDDLCNRLTRGI

Variants of: B1
Test: one-hybrid fitness for binding parS DNA (scaled: cognate 1, non-cognate 0); higher = stronger binding
Conditions: with parS DNA site
How it was run: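 On M9-minus-histidine containing 0.1 mM IPTG and 5 mM 3-AT, E. coli USO cells with a HIS3 reporter, site 19 bp from the promoter, grew 48 hours at 37°C to select Caulobacter ParB libraries randomised at four specificity codons. Plasmids from before and after were Illumina-sequenced, with three replicate libraries pooled and variants under 10 reads left out. Fitness is the log change in variant-to-wild-type read ratio, rescaled against cognate and non-cognate.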

Row | Variant | one-hybrid fitness for binding parS DNA
1 | ILAC | ≤ 0.2
2 | ISYQ | ≤ 0.2
3 | QGYL | ≤ 0.2
4 | LVTC | ≤ 0.2
5 | ALTH | ≤ 0.2
6 | VTLS | ≤ 0.2
7 | LKST | ≤ 0.2
8 | QDPF | ≤ 0.2
9 | QTNM | ≤ 0.2
10 | GLLM | ≤ 0.2
11 | CYRS | ≤ 0.2
12 | YFPR | ≤ 0.2
13 | RGVN | ≤ 0.2
14 | KVRT | ≤ 0.2
15 | VWVT | ≤ 0.2
16 | NSVT | ≤ 0.2
17 | NPPG | ≤ 0.2
18 | RKCS | 0.855
19 | HATN | ≤ 0.2
20 | RYDC | 0.949
21 | CHPN | ≤ 0.2
22 | FTVS | ≤ 0.2
23 | DSWS | ≤ 0.2
24 | ATMS | ≤ 0.2
25 | SPAW | ≤ 0.2

Row | Variant | one-hybrid fitness for binding parS DNA
26 | DDMS | ≤ 0.2
27 | PPAR | ≤ 0.2
28 | SQAS | ≤ 0.2
29 | TRHM | ≤ 0.2
30 | HIDA | ≤ 0.2
31 | YQAS | ≤ 0.2
32 | LKIR | ≤ 0.2
33 | PKQY | ≤ 0.2
34 | GEAG | ≤ 0.2
35 | DHPD | ≤ 0.2
36 | VSKG | ≤ 0.2
37 | LLNA | ≤ 0.2
38 | MLGR | ≤ 0.2
39 | SGPC | ≤ 0.2
40 | AMVI | ≤ 0.2
41 | VSQR | ≤ 0.2
42 | HYVV | ≤ 0.2
43 | IMAE | ≤ 0.2
44 | ALMH | ≤ 0.2
45 | FTAV | ≤ 0.2
46 | KIRI | ≤ 0.2
47 | GRES | ≤ 0.2
48 | QAHA | ≤ 0.2
49 | PLRT | ≤ 0.2
50 | FYEC | ≤ 0.2

Row | Variant | one-hybrid fitness for binding parS DNA
51 | HAKC | ≤ 0.2
52 | CLDG | ≤ 0.2
53 | TNFR | ≤ 0.2
54 | AEYL | ≤ 0.2
55 | FMAL | ≤ 0.2
56 | MHTA | ≤ 0.2
57 | ANKG | ≤ 0.2
58 | GHAA | ≤ 0.2
59 | TQIK | ≤ 0.2
60 | LCGA | ≤ 0.2
61 | YYKK | ≤ 0.2
62 | WASM | ≤ 0.2
63 | RCSR | ≤ 0.2
64 | SMRS | ≤ 0.2
65 | RAVG | 0.923
66 | CNGG | ≤ 0.2
67 | QKKM | ≤ 0.2
68 | WVAG | ≤ 0.2
69 | ILYD | ≤ 0.2
70 | VRDS | ≤ 0.2
71 | DSGS | ≤ 0.2
72 | GMGY | ≤ 0.2
73 | ELAS | ≤ 0.2
74 | PHQG | ≤ 0.2
75 | SHTA | ≤ 0.2

Row | Variant | one-hybrid fitness for binding parS DNA
76 | KNSR | ≤ 0.2
77 | HVIA | ≤ 0.2
78 | TNKN | ≤ 0.2
79 | LPVG | ≤ 0.2
80 | DGVF | ≤ 0.2
81 | RPAW | ≤ 0.2
82 | LTPQ | ≤ 0.2
83 | KNRK | ≤ 0.2
84 | EHRA | ≤ 0.2
85 | TAFS | ≤ 0.2
86 | VAKR | ≤ 0.2
87 | DCRT | ≤ 0.2
88 | IFCR | ≤ 0.2
89 | LDNC | ≤ 0.2
90 | DDPS | ≤ 0.2
91 | QCVK | ≤ 0.2
92 | LHIR | ≤ 0.2
93 | NAFS | ≤ 0.2
94 | ATTV | ≤ 0.2
95 | PCRW | ≤ 0.2
96 | LRSH | ≤ 0.2
97 | GPFS | ≤ 0.2
98 | PTTM | ≤ 0.2
99 | NGDM | ≤ 0.2
100 | AYNR | ≤ 0.2

Row | Variant | one-hybrid fitness for binding parS DNA
101 | PKLK | ≤ 0.2
102 | ESNY | ≤ 0.2
103 | ASVN | ≤ 0.2
104 | LCKR | ≤ 0.2
105 | LSSL | ≤ 0.2
106 | TQAG | ≤ 0.2
107 | NLRG | ≤ 0.2
108 | WIYW | ≤ 0.2
109 | MRKI | ≤ 0.2
110 | TCET | ≤ 0.2
111 | DFVR | ≤ 0.2
112 | HPDN | ≤ 0.2
113 | GLTP | ≤ 0.2
114 | GKRR | ≤ 0.2
115 | PIKS | ≤ 0.2
116 | RAAG | 1
117 | PNCV | ≤ 0.2
118 | TQVF | ≤ 0.2
119 | SRYH | ≤ 0.2
120 | DRAY | ≤ 0.2
121 | RKMK | ≤ 0.2
122 | CCKG | ≤ 0.2
123 | QAQS | ≤ 0.2
124 | MARA | ≤ 0.2
125 | MNTV | ≤ 0.2

Row | Variant | one-hybrid fitness for binding parS DNA
126 | VDDR | ≤ 0.2
127 | ASDW | ≤ 0.2
128 | GRLP | ≤ 0.2
129 | GHSR | ≤ 0.2
130 | SYHV | ≤ 0.2
131 | NQPT | ≤ 0.2
132 | YWPV | ≤ 0.2
133 | RQHC | 0.946
134 | VEYF | ≤ 0.2
135 | HDIG | ≤ 0.2
136 | VNLD | ≤ 0.2
137 | PYYM | ≤ 0.2
138 | RLVL | ≤ 0.2
139 | KETC | ≤ 0.2
140 | DPKI | ≤ 0.2
141 | KYAT | ≤ 0.2
142 | SRTW | ≤ 0.2
143 | TRCR | ≤ 0.2
144 | QDMS | ≤ 0.2
145 | QDGS | ≤ 0.2
146 | LPET | ≤ 0.2
147 | KCRA | ≤ 0.2
148 | QKRC | ≤ 0.2
149 | THPV | ≤ 0.2
150 | HSLM | ≤ 0.2

Row | Variant | one-hybrid fitness for binding parS DNA
151 | RHRL | ≤ 0.2
152 | IMVR | ≤ 0.2
153 | TCNA | ≤ 0.2
154 | ESLG | ≤ 0.2
155 | WYVT | ≤ 0.2
156 | SFYS | ≤ 0.2
157 | HYDY | ≤ 0.2
158 | GKSG | ≤ 0.2
159 | KYFG | ≤ 0.2
160 | HCPV | ≤ 0.2
161 | DWIC | ≤ 0.2
162 | AWIR | ≤ 0.2
163 | EMET | 0.273
164 | YVEG | ≤ 0.2
165 | DWYS | ≤ 0.2
166 | AGMG | ≤ 0.2
167 | RYTG | 0.992
168 | IYLA | ≤ 0.2
169 | HACG | ≤ 0.2
170 | QHPK | ≤ 0.2
171 | PKWR | ≤ 0.2
172 | HIAK | ≤ 0.2
173 | CLVS | ≤ 0.2
174 | HKYV | ≤ 0.2
175 | YLGG | ≤ 0.2

Row | Variant | one-hybrid fitness for binding parS DNA
176 | SQNT | ≤ 0.2
177 | AYDY | ≤ 0.2
178 | DPSA | ≤ 0.2
179 | YPYP | ≤ 0.2
180 | QYPR | ≤ 0.2
181 | ANQS | ≤ 0.2
182 | QCSW | ≤ 0.2
183 | NGLG | ≤ 0.2
184 | GQDR | ≤ 0.2
185 | YLRR | ≤ 0.2
186 | TVMC | ≤ 0.2
187 | QLHM | ≤ 0.2
188 | RWTG | 0.824
189 | EYPW | ≤ 0.2
190 | VSMG | ≤ 0.2
191 | AEDS | ≤ 0.2
192 | RRED | ≤ 0.2
193 | TTTG | ≤ 0.2
194 | CQRT | ≤ 0.2
195 | LISF | ≤ 0.2
